#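 Compound exposure: 48 hours, 5 concentrations, 96-well plates. GI50 marks 50% less growth.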 Active and inactive are the calls of the source. Rule as the data show it: active = GI50 up to about 1.1 µM and inactive = higher.
# Tested on: NCI-H322M
# Test: NCI tumour cell line growth inhibition, 48 h
row,Structure (SMILES),GI50
1,N#C/C(=C\Nc1ccccn1)C(=O)c1ccco1,inactive: > 100 µM
2,Cc1ccc2c(c1)c1ccc3c(c1n2C)C(=O)C=CC3=O,inactive: > 10 µM
3,Nc1ccc2nc3c(nc2c1)C(=O)c1ccccc1-3,inactive: > 100 µM
4,CN(C)CCNC1=C(Cl)C(=O)c2c(O)ccc(O)c2C1=O,inactive: 2.35 µM
5,COc1cc2c(cc1OC)C(=O)N(NC1=NCCN1)C2=O,inactive: > 100 µM
6,Cc1nc(N)c(N2CCN(C#N)CC2)c(O)n1,inactive: > 100 µM
7,COC1CCCCN1C(=O)c1ccccc1 (stereo unspecified),inactive: > 25.3 µM
8,O=C(CCc1cc(O)cc(O)c1)NCCc1cc(OCc2ccccc2)cc(OCc2ccccc2)c1,inactive: 18.9 µM
9,C1CN(c2nc3c(nnc4nc(N5CCOCC5)sc43)s2)CCO1,inactive: 56.1 µM
10,Oc1cc2cc(O)nc(O)c2c(O)n1,inactive: > 100 µM
11,COc1cc([C@@H]2c3cc4c(cc3[C@H](OC3OC5COC(c6ccco6)OC5C(O)C3O)C3COC(=O)[C@@H]32)OCO4)cc(OC)c1OC (stereo partly specified),inactive: 4.24 µM
12,COC(=O)C(CCCCN)NC(C)=O.Cc1ccc(C(=O)Nc2ccc(S(=O)(=O)O)c3cc(S(=O)(=O)O)cc(S(=O)(=O)O)c23)cc1NC(=O)c1cccc(NC(=O)Nc2cccc(C(=O)Nc3cc(C(=O)Nc4ccc(S(=O)(=O)O)c5cc(S(=O)(=O)O)cc(S(=O)(=O)O)c45)ccc3C)c2)c1,inactive: > 50 µM
13,COc1ccc2c(c1)OCCC1=C2SCC2(C)CCN=C12 (stereo unspecified),inactive: > 100 µM
14,O=C1[C@H]2ON(c3ccccc3)C(c3ccc([N+](=O)[O-])cc3)[C@H]2C(=O)N1c1ccc(Cc2ccc(N3C(=O)[C@@H]4ON(c5ccccc5)C(c5ccc([N+](=O)[O-])cc5)[C@@H]4C3=O)cc2)cc1 (stereo partly specified),inactive: > 100 µM
15,CCCCN(CCCC)/C(=N\C#N)NCc1ccccc1,inactive: 24.3 µM
16,COc1cccc(NC(=O)CC(=O)N2N=C(N(CCC#N)c3ccccc3C)CC2c2ccccc2)c1 (stereo unspecified),inactive: > 100 µM
17,COCCNC(=O)C1C(=O)C(=O)N(CCOC)C1=O (stereo unspecified),inactive: > 100 µM
18,CCSSCS(C)(=O)=O,inactive: 53.1 µM

row,Structure (SMILES),GI50
1,CC[C@@H]1OC2(C)CC(S(=O)(=O)c3ccccc3O)CC1O2 (stereo partly specified),inactive: > 100 µM
2,O=C(Nc1ccn(CCOC(=O)c2ccccc2)c(=O)n1)c1ccccc1,inactive: > 100 µM
3,CCOC(=O)c1ccc(C(=O)/C(C(C)=O)=C2\CCCN2C)n1C,inactive: > 100 µM
4,CC(=O)N(CCN)CCN,inactive: > 10 µM
5,CC1(C)[C@@H]2CC[C@@]1(C)CN(CCC[N+](C)(C)C)C2,inactive: > 100 µM
6,O=[N+]([O-])c1cc(/C=N/NS(=O)(=O)c2ccc(F)cc2)c(O)c([N+](=O)[O-])c1,inactive: 61.5 µM
7,Cc1ccc(/C=N/Nc2ccccn2)s1,inactive: > 38.9 µM
8,c1ccc2c(c1)Nc1cccc3c1c-2nc1cc2ccccc2cc13,inactive: 1.66 µM
9,COc1ccc2c(c1)/C(=C\c1c(C)nc3sc(C)cn13)C(=O)N2,active: 0.728 µM
10,CC1=NN(c2nc(N)nc(/C(C#N)=C/c3ccccc3O)n2)C(C)(C)C1,inactive: 19.4 µM
11,COc1ccc(Cc2nc3cc(C(F)(F)F)ccc3n2C[C@@H]2CCCN3CCCCC23)cc1 (stereo partly specified),inactive: 14.1 µM
12,COc1ccc(C2C(C(=O)O)=C(COC(C)=O)Oc3cc4c(cc32)OCO4)c(OC)c1 (stereo unspecified),inactive: > 100 µM
13,C[C@]12CC[C@@H]3c4ccc(OP(=O)(O)O)cc4CC[C@H]3[C@@H]1CCC2=O,inactive: > 100 µM
14,S=C(S)N1CCN(c2ccc(Cl)c(Cl)c2)CC1,inactive: 32.2 µM
15,COC(=O)CC(C(C(C)=O)C(=O)OCc1ccccc1)N1C(=O)OCC1c1ccccc1 (stereo unspecified),inactive: > 100 µM
16,Cc1cc(=O)[nH]c(-n2[nH]c(C)c(CCO)c2=O)n1,inactive: > 100 µM
17,Nc1ccc2c(c1)C(=O)N(OS(=O)(=O)c1ccccc1)C2=O,inactive: > 100 µM
18,O=c1ccn(/C=C/C(O)C(O)CO)c(=O)[nH]1 (stereo unspecified),inactive: > 100 µM

# From ChEMBL document CHEMBL1201862, “PubChem BioAssay data set” (2004)
